Results published in PubChem BioAssay AID687022 (Broad Institute, 2013).
Screen size: about 1,000 compounds; about 360 (36%) were called active.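 The calls were made as follows: active = Fitted curve of melting temperature shift crosses the 1.0 threshold at or below the sample's highest valid tested concentration; inconclusive = Flat fit with activity 30 to 70, or invalid fit; inactive = Opposite direction, flat within 30, or no crossing.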 The list lacks most of the strong results.

biological target: Fibroblast growth factor 22 (Homo sapiens) (UniProt Q9HCT0); test: FGF22 ligand-induced thermal stabilization – biophysical, thermal shift, cherry-pick, FGF22 synaptogenesis inhibitor project, dose response (AID 687022); settings: recombinant FGF22 thermal shift, SYPRO orange melting; at 38 µM (top of the series) unless noted; also: reference of the scale not given here
Chain of UniProt Q9HCT0 (Q9HCT0 whole entry, looked up): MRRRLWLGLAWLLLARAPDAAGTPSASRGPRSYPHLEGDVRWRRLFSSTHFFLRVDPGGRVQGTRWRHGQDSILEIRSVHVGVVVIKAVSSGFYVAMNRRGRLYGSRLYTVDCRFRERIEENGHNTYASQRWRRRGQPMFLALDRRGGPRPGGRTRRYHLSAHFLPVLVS

SMILES | Tm shift activity
COc1ccc(C(=O)N=c2sc3ccccc3n2C)cc1OC | inactive: 0.139%
O=C(O)C1CSC2(CCN(Cc3ccccc3)CC2)N1 (stereo not drawn) | inactive: -0.082%
CCCNC(=O)N1CC(=O)N2[C@H](C1)[C@@H](c1ccc(-c3cccc(C)c3)cc1)[C@@H]2CO | inactive: -0.204%
CC(C)N(Cc1ccccc1)C(=O)COC(=O)C1CCN(c2ccc(C(F)(F)F)cn2)CC1 | inactive: 0.133%
O=C(NC1CCCCC1)N1CC(=O)N2[C@H](CO)[C@H](c3ccc(-c4cccc(F)c4)cc3)[C@H]2C1 | inactive: -1.26% [at 42 µM]
CO[C@H]1CN(C)C(=O)c2cc(NC(=O)c3cccc(F)c3)ccc2OC[C@H](C)NC[C@@H]1C | inactive: -0.133%
COCC(=O)N1CC2(C1)[C@H](c1ccc(-c3cccc(C)c3)cc1)[C@H](CO)N2C(=O)C1CC1 | inactive: -0.472% [at 42 µM]
O=C1C=CCCN1S(=O)(=O)/C=C/c1ccccc1 | inactive: 0.169%
N#CCC(=O)Nc1ccc(C(=O)NCCc2c[nH]c3ccccc23)cc1 | inactive: -0.09% [at 10 µM]
O=C(Nc1ccccc1)Nc1ccc2nnsc2c1 | inactive: -0.368%
O=C(c1cccc(NC2=NC3CS(=O)(=O)CC3S2)c1)N1CCN(c2ncccn2)CC1 (stereo not drawn) | inactive: -0.069%
O=C(c1ccc2c(c1)OCO2)N1CC(=O)N2[C@H](C1)[C@H](c1ccc(C#CCC3CCCC3)cc1)[C@@H]2CO | inactive: 0.635%
O=C1Cc2ccccc2C(=O)N1c1cccc(Cl)c1 | inactive: 0.062%
NS(=O)(=O)c1cccc(NC(=O)c2ccc(NS(=O)(=O)c3cccc([N+](=O)[O-])c3)cc2)c1 | inactive: -0.109%
Cc1ccc(S(=O)(=O)N[C@H]2C=C[C@H](CC(=O)N3CCc4ccccc4C3)O[C@H]2CO)cc1 | inactive: -0.014% [at 42 µM]
O=C(N/N=C/c1ccc(-c2cccc([N+](=O)[O-])c2)o1)c1ccc([N+](=O)[O-])cc1 | inactive: 0.08%
COc1ccccc1-c1ccc2n(c1=O)C[C@@H]1[C@@H](CO)[C@H](C(=O)NC3CCC3)N(C(=O)NC(C)C)[C@H]21 | inactive: 0.104% [at 19.5 µM]
Nc1c(N(CCO)C(=O)COc2ccc(Cl)cc2)c(=O)[nH]c(=O)n1Cc1ccccc1 | inactive: -0.221%
Cc1ccc(-c2ccc([C@H]3[C@@H](CO)N4C(=O)CN(C(=O)c5ccc(F)cc5)C[C@@H]34)cc2)cc1 | inactive: -2.35%
COc1nc(-c2ccc(Cl)cc2)nnc1C | inactive: -0.19%
CC(C)C#Cc1cnc2c(c1)C(=O)N([C@@H](C)CO)C[C@H](C)[C@@H](CN(C)C(=O)c1cnccn1)O2 | inactive: -0.02% [at 42 µM]
Cc1c(/C=N\NC(=O)c2cccc(F)c2)cnn1C | inactive: -0.081%
C[C@@H]1CN([C@@H](C)CO)C(=O)c2cccc(NC(=O)C3CC3)c2O[C@H]1CN(C)Cc1ccncc1 | inactive: 0.078%
O=C(C[C@H]1CC[C@H](NC(=O)Nc2cc(F)ccc2F)[C@@H](CO)O1)Nc1ccc(-c2ccccc2)cc1 | inactive: 0.009% [at 42 µM]
N#CCc1nn(-c2ccccc2)c2ncnc(N)c12 | inactive: -0.125%

SMILES | Tm shift activity
COCC(=O)N1C[C@@H](C)[C@H](OC)CN(C)C(=O)c2ccc(NC(=O)NC(C)C)cc2OC[C@@H]1C | inactive: 0.42% [at 42 µM]
Cc1ccc(S(=O)(=O)N[C@H]2C=C[C@@H](CC(=O)N3CCc4ccccc4C3)O[C@@H]2CO)cc1 | inactive: 0.071%
COCC(=O)N1[C@H](CO)[C@H](c2ccccc2)C12CN(C(=O)c1ccccc1)C2 | inactive: 0.454% [at 42 µM]
CCCCn1cnc2c(SCc3cccc(F)c3)nc(N)nc21 | inactive: -0.433%
O=C(C[C@@H]1CC[C@@H](NC(=O)Nc2cc(F)ccc2F)[C@H](CO)O1)NCCCN1CCOCC1 | inactive: 0.042% [at 42 µM]
CC(=O)Oc1ccc(C(=O)Nc2ccccc2C(=O)N2CCCCC2)cc1 | inactive: -0.094%
COCCNC(=O)CCc1nnc2ccc(N3CCC(C)CC3)nn12 | inactive: -0.14%
CCC(=O)N1[C@H](CO)[C@@H](c2ccccc2)[C@H]1CN(C)C(=O)CN1CCOCC1 | inactive: -0.119%
Cc1ccc(S(=O)(=O)Nc2nc3ccccc3s2)cc1[N+](=O)[O-] | inactive: 0.122%
Cc1ccc(S(=O)(=O)N[C@H]2C=C[C@@H](CC(=O)NCc3ccc(Cl)c(Cl)c3)O[C@H]2CO)cc1 | inactive: 0.073%
C[C@H]1CN([C@@H](C)CO)C(=O)c2cc(NS(=O)(=O)c3cn(C)cn3)ccc2O[C@H]1CN(C)Cc1ccccc1 | inactive: -0.139%
Cc1ccc(-c2ccc([C@@H]3[C@@H](CO)N4C(=O)CN(C(=O)c5ccc(F)cc5)C[C@H]34)cc2)cc1 | inactive: 14.5%
C[C@H](NC(=O)C[C@@H]1CC[C@@H](NC(=O)Nc2ccc3c(c2)OCO3)[C@@H](CO)O1)c1ccccc1 | inactive: 0.013% [at 42 µM]
Cc1nc2ccc(NC(=O)c3cc([N+](=O)[O-])cc([N+](=O)[O-])c3Cl)cc2s1 | inactive: 0.47%
CCOC(=O)Cn1c2ccccc2n2nc(CCC(=O)O)c(=O)nc12 | inactive: -0.267%
CCS(=O)(=O)N[C@@H]1CC[C@H](CC(=O)Nc2ccc(-c3ccccc3)cc2)O[C@@H]1CO | inactive: 0.011% [at 35 µM]
COc1ccc(C)cc1NC(=O)C1CCN(S(=O)(=O)c2cccs2)CC1 | inactive: 0.023%
Nc1n[nH]c(=S)n1/N=C1/C(=O)Nc2ccccc21 | inactive: -1.04% [at 19.5 µM]
C[C@H]1CN([C@@H](C)CO)C(=O)Cc2cc(NS(=O)(=O)c3ccc(F)cc3)ccc2O[C@H]1CN(C)CC1CCCCC1 | inactive: -0.208%
O=[N+]([O-])c1ccc(Cl)c(S(=O)(=O)Nc2ccc(S(=O)(=O)N3CCOCC3)cc2)c1 | inactive: -0.245%
CO[C@@H]1CN(C)C(=O)c2ccc(NS(=O)(=O)c3ccc(F)cc3)cc2OC[C@@H](C)N(C)C[C@H]1C | inactive: -0.057%
COc1ccccc1C(=O)NNC(=O)c1ccc(NC(=O)c2ccccc2)cc1 | inactive: 0.273%
COc1ccc(NC(=O)CCCN2C(=O)CN(C)C2=O)c(OC)c1 | inactive: -0.758%
CCNC(=O)Nc1ccc2c(c1)C(=O)N(C)[C@H]1CC[C@H](CC(=O)NCc3ccc(F)cc3)O[C@H]1CO2 | inactive: 0.363%
Cc1ccc(NC(=O)c2ccc(Cl)c(S(=O)(=O)NCC3CCCO3)c2)c(O)c1 (stereo not drawn) | inactive: 0.021%

SMILES | Tm shift activity
O=C(N[C@H]1CC[C@@H](CCNS(=O)(=O)c2ccc(F)cc2)O[C@H]1CO)C1CCCC1 | inactive: -0.05% [at 42 µM]
CCOc1cc(-c2nc(C)c(C(C)=O)n2O)ccc1OCC(=O)Nc1ccc(F)cc1 | inactive: 0.356%
O=C(Nc1cccc(S(=O)(=O)N2CCCCC2)c1)C1=NN(c2ccccc2)C(=O)CC1 | inactive: 0.048%
CCn1c(=O)[nH]c(=O)c2c(N)c(C(=O)c3cc(F)ccc3F)sc21 | inactive: -0.324%
CC(C)c1ccc(NC(=O)Nc2nnc([C@H]3C[C@H](O)[C@@H](CO)O3)s2)cc1 | inactive: 0.461%
O=C(COC(=O)CSc1ccc([N+](=O)[O-])cc1)NCCC1=CCCCC1 | inactive: -0.227%
Cc1ccc(NC(=O)C2CCCN2C(=O)Oc2ccccc2)c(C)c1 (stereo not drawn) | inactive: -0.057%
CC1=C2[C@@H](c3ccccc3)OB(O)C[C@@H]2n2c(=O)n(-c3ccccc3)c(=O)n2C1 | inactive: -0.153%
C[C@H]1CN([C@@H](C)CO)S(=O)(=O)c2ccc(C#Cc3ccncc3)cc2O[C@H]1CN(C)C(=O)Nc1ccc2c(c1)OCO2 | inactive: 0.854%
CCOc1ccc(C2OC(=O)Cc3cc(OC)c(OC)cc32)cc1 (stereo not drawn) | inactive: -0.371%
O=[N+]([O-])c1ccc(CSc2nnc(Cc3ccccc3)o2)cc1 | inactive: -0.077%
O=C(CC1CC1)N1CC2(C1)[C@@H](c1ccccc1)[C@@H](CO)N2S(=O)(=O)Cc1ccccc1 | inactive: -0.102%
CCCNC(=O)N1CC(=O)N2[C@H](CO)[C@@H](c3ccc(-c4cccc(C)c4)cc3)[C@@H]2C1 | inactive: -0.405% [at 42 µM]
CC(=O)N1[C@H](CO)[C@H](c2ccccc2)[C@H]1CN(C(=O)c1cccc(F)c1)C(C)C | inactive: -0.225%
COC(=O)c1cn(NC(=O)Cc2ccccc2OC)c(=O)c2ccccc12 | inactive: -0.081%
CCCSc1ncnc2[nH]ncc12 | inactive: -0.089%
Cc1cc(C(=O)O/N=C(\N)c2ccncc2)ccc1[N+](=O)[O-] | inactive: -0.188%
COCC(=O)Nc1ccc2c(c1)[C@H]1C[C@@H](CC(=O)NCc3ccccn3)O[C@H](CO)[C@H]1O2 | inactive: -0.244%
O=C(C[C@@H]1CC[C@H]2[C@@H](COC[C@@H](O)CN2CC2CCOCC2)O1)NCC1CCCCC1 | inactive: -0.087%
COc1cc(C2C(C#N)=C(N)Oc3n[nH]c(-c4cccnc4)c32)cc(Br)c1O (stereo not drawn) | inactive: -0.165%
C[C@@H]1CN([C@H](C)CO)C(=O)Cc2cc(N(C)C)ccc2O[C@@H]1CN(C)Cc1ccc(Cl)c(Cl)c1 | inactive: -0.391% [at 42 µM]
COc1ccc(Cc2nnc(-c3ccccc3)o2)cc1 | inactive: 0.016%
CCN1C(=O)c2cccc3c(S(=O)(=O)Nc4ccc(O)c(C(=O)O)c4)ccc1c23 | inactive: 0.895% [at 5 µM]
